Data as given in PubChem BioAssay AID624417 (National Center for Advancing Translational Sciences (NCATS), 2012).
Hit rate of the full screen: of about 410,000 compounds, about 6,400 (1.6%) were called active. Inconclusive results, whose numbers are uncertain, are shown with a selection of clear calls. The call rests on the fitted dose curve; in most records, active means well fitted inhibition curve with a large enough effect; inconclusive means small, poorly fitted or top-dose-only effect; inactive means no such curve, though single readings can be large or run the other way. No potency is given beside an inconclusive call; the fits are too rough.

Biological target: Glucagon-like peptide 1 receptor (Homo sapiens) (UniProt P43220)
Chain of UniProt P43220 (P43220 whole entry, looked up): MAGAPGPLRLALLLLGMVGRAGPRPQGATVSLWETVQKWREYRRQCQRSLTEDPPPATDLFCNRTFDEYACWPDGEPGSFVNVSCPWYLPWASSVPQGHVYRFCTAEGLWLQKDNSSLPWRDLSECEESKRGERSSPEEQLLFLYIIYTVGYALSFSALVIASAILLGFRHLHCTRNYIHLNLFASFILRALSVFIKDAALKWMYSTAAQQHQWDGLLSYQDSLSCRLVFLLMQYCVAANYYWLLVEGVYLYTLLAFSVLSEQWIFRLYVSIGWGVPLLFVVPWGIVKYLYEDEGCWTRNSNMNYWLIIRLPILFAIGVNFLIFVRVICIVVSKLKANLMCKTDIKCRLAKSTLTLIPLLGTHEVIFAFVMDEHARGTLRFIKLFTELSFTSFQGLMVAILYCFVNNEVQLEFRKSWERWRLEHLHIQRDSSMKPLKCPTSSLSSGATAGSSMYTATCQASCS
Test: qHTS of GLP-1 Receptor Inverse Agonists (Inhibition Mode); further: nearly all actives have a fitted effect of over 55% in size
Details: HEK293 GLP-1R CRE-luciferase, luminescence, 24 h, GLP-1R form is constitutively active; activity change, negative = inhibition: at 38.3 µM (top of the series) unless noted
How it was run: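 Constitutively active GLP-1R drives a cAMP-responsive luciferase in stably transfected HEK293 cells; test compounds are added after overnight (12 h) attachment and left 24 hr, and signal loss in luminescence marks inhibition.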
On the % scale 0 is the no-effect control and ±100 the full control effect; potency means the concentration at half of the fitted maximal effect; tags describe the fitted curve by direction and shape.

Row | Compound | Potency | activity change, negative = inhibition
1 | Cc1ccc(S(=O)(=O)N(CC(=O)N2CCOCC2)c2ccccc2F)cc1 | inconclusive [inhibitor, partial curve] | 
2 | Cc1cccc(NC(=O)c2cc(S(=O)(=O)N3CCc4ccccc43)ccc2F)c1C | inconclusive [inhibitor, partial curve, poor fit] | 
3 | CCc1c(C(=O)NNC(=S)NCCc2ccccc2)csc1C | inconclusive [inhibitor, partial curve, poor fit] | 
4 | COc1ccccc1NC(=O)CSc1nc2ccccc2nc1N1CC(C)OC(C)C1 (stereo not drawn) | inconclusive [inhibitor, partial curve] | 
5 | CCc1ccc(NC(=O)Nc2ccc3c(c2)N(C)C(=O)CS3)cc1 | inconclusive [inhibitor, partial curve] | 
6 | CC1(C)CC(=O)C(C=Nc2cccnc2/N=C/C2=C(O)CC(C)(C)CC2=O)=C(O)C1 |  | inactive: 9.09%
7 | CCN(CC)c1cc(C)c2cc(NC(=O)c3cccc(F)c3)ccc2n1 | inconclusive [inhibitor, single point] | 
8 | Cc1[nH]c2ccccc2c1C(=O)COc1ccccc1F | inconclusive [inhibitor, single point] | 
9 | Cc1cc(-c2ccccc2)n2nc(N)nc2n1 |  | inactive: 94%
10 | O=C(N/N=C/c1sc(=O)n(-c2ccccc2)c1Cl)c1ccncc1 |  | inactive: -29.5%
11 | CCCC#Cc1ccc2c(c1)O[C@@H](CN(C)Cc1ccc3c(c1)OCO3)[C@H](C)CN([C@@H](C)CO)S2(=O)=O | inconclusive [inhibitor, single point] | 
12 | O=c1c2cc(NC(=S)NC3CCN(Cc4ccccc4)CC3)ccc2nc2n1CCCCC2 | inconclusive [inhibitor, partial curve, poor fit] | 
13 | O=C(N/N=C/c1ccccn1)c1ccco1 |  | inactive: 0%
14 | COc1cc(C(O)c2nc(-c3ccc(F)cc3OC)cs2)ccc1F (stereo not drawn) | inconclusive [inhibitor, single point] | 
15 | COc1ccc(Br)cc1C1N2CC3(C)CN1CC(C)(C2)C3=O (stereo not drawn) | inconclusive [inhibitor, single point] | 
16 | Cc1ccc(C(=O)NNC(=O)CSc2nnc(-c3ccccc3)n2Cc2ccccc2)cc1 | inconclusive [inhibitor, full curve] | 
17 | C/C(=N/NC(=O)c1ccc(-c2ccccc2)cc1)c1cccc(O)c1 | inconclusive [inhibitor, single point] | 
18 | COc1cccc(C(C(=O)NC(C)(C)C)N(Cc2ccc(C)cc2)C(=O)CCC(=O)Nc2cc(C)on2)c1OC (stereo not drawn) | inconclusive [inhibitor, partial curve, poor fit] | 
19 | Cc1ccn2c(=O)c(C(=O)NCCc3ccccc3)c(O)nc2c1 |  | inactive: -14.6%
20 | O=C(NC1CC(=O)N(c2cccc(F)c2)C1)c1ccc(S(=O)(=O)N2CCCC2)cc1 (stereo not drawn) |  | inactive: 7.29%
21 | COCCCNC(=S)N/N=C/c1ccccc1O | inconclusive [inhibitor, full curve, poor fit] | 
22 | COc1cccc(Cn2nnc(C(=O)Nc3cc(C)ccc3C)c2N)c1 | inconclusive [inhibitor, partial curve, poor fit] | 

Row | Compound | Potency | activity change, negative = inhibition
23 | COc1ccc(OC)c(C(c2nnnn2C(C)(C)C)N2CCc3ccccc3C2)c1 (stereo not drawn) | inconclusive [inhibitor, partial curve, poor fit] | 
24 | COc1ccc(C(C)(NC(C)=O)c2nc(-c3cccc(C(F)(F)F)c3)cs2)cc1 (stereo not drawn) | inconclusive [inhibitor, single point] | 
25 | CC(C)CS(=O)(=O)c1oc(-c2ccc(F)cc2)nc1S(=O)(=O)c1ccccc1 | inconclusive [inhibitor, single point] | 
26 | CC(C)COc1ccc(N)cc1OCC(C)C | inconclusive [inhibitor, single point] | 
27 | CC(C)(C)OC(=O)N[C@@H](C(=O)OC(C)(C)C)c1ccc2c(c1)OCO2 | inconclusive [inhibitor, partial curve, poor fit] | 
28 | O=C(c1ccc(F)cc1)c1ccc(N2CCCC2)cc1 | inconclusive [inhibitor, single point] | 
29 | C=CCn1c(=S)[nH]c2ccc(Br)cc2c1=O | inconclusive [inhibitor, partial curve] | 
30 | CC1CCN(C(=O)CSCc2ccc(Cl)cc2)CC1 | inconclusive [inhibitor, partial curve, poor fit] | 
31 | O=S(=O)(NCCC1=CCCCC1)c1ccccc1Br | inconclusive [inhibitor, single point] | 
32 | CC(C)NC(=O)C1(C)CCCN1C(=O)c1ccc2c(c1)C(C)(C)CCC2(C)C (stereo not drawn) | inconclusive [inhibitor, full curve] | 
33 | CCN(Cc1cc2cc(OC)ccc2[nH]c1=O)C(=O)Cc1ccc(OC)cc1 |  | inactive: 10.3%
34 | O=C(NCCCN1CCN(c2cccc(Cl)c2)CC1)C1CCC(=O)N1Cc1ccccc1Cl (stereo not drawn) | inconclusive [inhibitor, partial curve, poor fit] | 
35 | O=C(Nc1ccc(Cl)cc1)C1CCCN(c2ncnc3c2nc2n3CCCCC2)C1 (stereo not drawn) | inconclusive [inhibitor, full curve, poor fit] | 
36 | CCCCNC(=O)OCC(CC)NC(=O)OC(C)C (stereo not drawn) |  | inactive: 2.68%
37 | O=C(N/N=C\c1c(O)ccc2ccccc12)c1ccc(Cn2cccn2)o1 |  | inactive: -34.9%
38 | C[C@@H]1CN([C@H](C)CO)S(=O)(=O)c2ccc(Br)cc2O[C@H]1CN(C)C(=O)C1CC1 |  | inactive: 2.71%
39 | CCN(CC)CCCNC(=O)c1cn(CCOC)c(=O)c2c1c1ccccc1n2C |  | inactive: -9.22%
40 | COCCC(=O)N1CCC(Oc2ccc(C(=O)N3CCCCCCC3)cc2)CC1 |  | inactive: -12.3%
41 | Cc1cc(OC(=O)c2ccc(Cl)cc2Cl)c([N+](=O)[O-])c(=O)[nH]1 |  | inactive: 20.2%
42 | N#CC(=C(O)COC(=O)CCC1CCCCC1)c1nc2ccccc2[nH]1 |  | inactive: 1.71%
43 | COc1ccc(C)cc1S(=O)(=O)NCC(c1cccnc1)N1CCc2ccccc2C1 (stereo not drawn) | inconclusive [inhibitor, partial curve, poor fit] | 
